Experimental data as given in ChEMBL document CHEMBL4888484, “Replenishing the malaria drug discovery pipeline: Screening and hit evaluation of the MMV Hit Generation Library 1 (HGL1) against asexual blood stage Plasmodium falciparum ,using a nano luciferase reporter read-out” (2022).
About 540 (0.36%) of roughly 150,000 compounds showed an effect of 50% or more. The list shows a part of the results.

Each compound was assayed on Plasmodium falciparum (assay: Primary screen in NF54 nanoGlo assay, in single point, at 2uM, 72h; a lower Z score goes with more inhibition). Conditions: timepoint 72 hour.
Format: functional, Erythrocyte
In the case of `COc1cccc(C(=O)NCC(=O)N2CCn3c(nc(C)c3C)C2)c1`, the “% Inhibition” value is reported as -5% and the Z score is reported as 0.66. For `Cc1ccc(CN2CC[C@H](c3nnc(-c4ccco4)o3)C2)o1`, the “% Inhibition” value was 17% and the Z score was -1.96. In the case of `Cn1cc(C2C[S+]([O-])CCN2C(=O)c2ccc(CCC(F)(F)F)cc2)cn1` (centres undefined), the “% Inhibition” value is reported as -12% and the Z score is reported as 1.11. `C/C(C(=O)Nc1ccc(C(=O)c2ccccc2)cc1N)=C(/C)c1nc2ccccc2[nH]1` was tested, and the “% Inhibition” value was 7% and the Z score was -1.25. For `O=S(=O)(c1c[nH]c2ncncc12)N(CC1CCC1)c1ccccc1`, the “% Inhibition” value was -1% and the Z score was 0.17. For `Cc1ccc(C(=O)C2CCN(C(=O)[C@H](C)NS(=O)(=O)c3c(C)noc3C)CC2)c(C)c1`, the “% Inhibition” value was 1% and the Z score was -0.25. `COc1ccccc1N1CCN(C(=O)[C@H]2CC(=O)N(C3CC3)C2)CC1` was tested, and the “% Inhibition” value was 0% and the Z score was -0.05. With `CCN1CCN(CCCNc2nc(-c3ccccc3F)no2)CC1` the “% Inhibition” value was -13% and the Z score was 2.37. With `CCn1ccc2c([C@H]3CC(=O)NCc4nc5ccc(C)cn5c43)cccc21` the “% Inhibition” value was -2% and the Z score was 0.21. In the case of `Cc1nocc1C(=O)NC1CC[C@H]2CN(Cc3ccccc3)C[C@H]2C1` (some centres undefined), the “% Inhibition” value is reported as -12% and the Z score is reported as 1.42. For `O=C(NC1CCCCC1)c1nc[nH]c1C(=O)NCC1CC1`, the “% Inhibition” value was -8% and the Z score was 1.4. In the case of `CC(=O)N(C(C)=O)c1c(-c2ccccc2)nnn1-c1ccccc1`, the “% Inhibition” value is reported as 35% and the Z score is reported as -1. `Cn1cccc1CNc1nnc([C@@H]2CCCO2)o1` was tested, and the “% Inhibition” value was -5% and the Z score was 0.81. In the case of `O=C(Nc1cc(F)ccc1F)N1CCN(Cc2nc3cccnc3n2-c2cccc(F)c2)CC1`, the “% Inhibition” value is reported as 3% and the Z score is reported as -0.43. With `CCOCC(=O)NC[C@H]1CCCN1c1ccccc1` the “% Inhibition” value was -10% and the Z score was 1.93. With `ONc1ccccc1-c1nc(-c2ccc(Cl)cc2)no1` the “% Inhibition” value was -2% and the Z score was 0.25. For `C[C@@H](O)[C@@H](CO)NC(=O)c1ccnc(C2CC2)n1`, the “% Inhibition” value was 14% and the Z score was -1.63. In the case of `Cc1nc(C(F)(F)F)ccc1S(N)(=O)=O`, the “% Inhibition” value is reported as -5% and the Z score is reported as 0.59. `CS(=O)(=O)N1CCC(C(=O)Nc2cnccc2-c2ccccc2)CC1` was tested, and the “% Inhibition” value was -16% and the Z score was 2.3. `Cn1cc(C(=O)N2CCOC[C@@H]2Cc2c[nH]c3ccccc23)c(C(C)(C)C)n1` was tested, and the “% Inhibition” value was -12% and the Z score was 1. With `Cc1ccc(NC(=O)[C@H]2CC(=O)N(c3n[nH]c4cccc(F)c34)C2)cc1C` the “% Inhibition” value was 0% and the Z score was 0.02. In the case of `CCc1nnc(CNC(=O)NC[C@H]2CCCC[C@H]2C(F)(F)F)o1`, the “% Inhibition” value is reported as -5% and the Z score is reported as 1.05. For `Cc1ccc(C(=O)N2CC[C@H](C(=O)Nc3cn[nH]c3)C2)c(Cl)c1`, the “% Inhibition” value was 0% and the Z score was 0.04. With `CO[C@@H](CNC(=O)Nc1ccccc1C(F)(F)F)c1ccco1` the “% Inhibition” value was 12% and the Z score was -1.56. `Cc1cc(C)nc(O[C@H]2CCCN(C(=O)c3cccc(C#N)c3)C2)n1` was tested, and the “% Inhibition” value was 2% and the Z score was -0.32. For `COC[C@H]1CN(C(C)=O)CC12CCN(Cc1ccc(Cl)cc1F)CC2`, the “% Inhibition” value was -9% and the Z score was 1.01. With `C[C@H](OC(=O)COc1ccccc1)C(=O)Nc1ncnc2[nH]cnc12` the “% Inhibition” value was -13% and the Z score was 1.89. For `CC(NC(=O)N[C@@H]1C=C[C@H](CO)C1)c1ccncc1F` (some centres undefined), the “% Inhibition” value was 37% and the Z score was -5.39. For `Cc1nc2ccccc2c(N2CCC(c3nncn3C)CC2)c1C`, the “% Inhibition” value was -10% and the Z score was 1.67. `Cc1ccc(NC(=O)c2cccc(F)c2)c(-c2nc3ccccc3nc2O)c1` was tested, and the “% Inhibition” value was -15% and the Z score was 1.64. In the case of `Fc1ccc(-c2noc(-c3ccc(N4CCC5(CC4)OCCO5)nc3)n2)cc1`, the “% Inhibition” value is reported as -10% and the Z score is reported as 1.19. In the case of `Cc1nc2ccnn2cc1C(=O)N1C[C@@H](C)CN(C)c2ccccc21`, the “% Inhibition” value is reported as -4% and the Z score is reported as 0.6. For `Cn1c(NC(=O)c2ccc(F)cc2)c(-c2cccc3ccccc23)c(=O)c2ccccc21`, the “% Inhibition” value was -3% and the Z score was 0.41. `Cc1csc(NC(=O)N2CCC(C)[S+]([O-])CC2)n1` (centres undefined) was tested, and the “% Inhibition” value was -15% and the Z score was 2.38. `O=C(CCc1ccsc1)N1CC[C@H](O)C12CCCC2` was tested, and the “% Inhibition” value was -4% and the Z score was 0.54. For `C[C@@]1(CO)CN(C(=O)c2ccc(Cl)cc2)C[C@@H]2CN(C3CCC3)CCN21`, the “% Inhibition” value was 0% and the Z score was -0.01. For `Cc1ncn(CC2(O)CCC(C)CC2)c(=O)c1C` (centres undefined), the “% Inhibition” value was -8% and the Z score was 1.25. With `CCn1ccc(NC(=O)c2ccsc2)n1` the “% Inhibition” value was -7% and the Z score was 1.27. With `COc1ccc2cc(C(=O)N3CC(F)(F)C[C@H]3COc3cccnc3)[nH]c2c1` the “% Inhibition” value was -5% and the Z score was 0.79. With `COc1ccc(C(=O)NC2CCCCCC2)cn1` the “% Inhibition” value was -4% and the Z score was 0.84. With `O=C1CC[C@H](N2CCN(C(=O)c3ccc(OC(F)F)cc3)CC2)CCN1` the “% Inhibition” value was -5% and the Z score was 1.01. `C[C@@H](C(=O)NCc1ccc(N2CCCC2=O)cc1)n1cccn1` was tested, and the “% Inhibition” value was -9% and the Z score was 1.69. `O=C(Cc1cccc(Cl)c1)N1CC[C@@]2(CCCN(CC3CC3)C2=O)C1` was tested, and the “% Inhibition” value was -23% and the Z score was 2.12. In the case of `COc1ccccc1CC(=O)N[C@H]1CCCN(CCCc2ccccc2)C1`, the “% Inhibition” value is reported as -11% and the Z score is reported as 1.54. For `Cc1ccc(F)cc1-n1ccnc1C(C)(C)CN1CCOCC1`, the “% Inhibition” value was -6% and the Z score was 0.89. `CCN1CCN(C(=O)Nc2ccc(C(C)=O)cc2)[C@H]2CS(=O)(=O)C[C@H]21` was tested, and the “% Inhibition” value was 6% and the Z score was -0.78. `CCOc1ccc(NC(=O)c2c(C(F)(F)F)n[nH]c2C)cc1` was tested, and the “% Inhibition” value was 2% and the Z score was -0.33. `COc1ccccc1[C@H]1CCN(S(=O)(=O)c2cccs2)C1` was tested, and the “% Inhibition” value was -3% and the Z score was 0.57. With `O=C(CC1CCCC1)NCCc1csc(-c2ccccc2)n1` the “% Inhibition” value was 0% and the Z score was -0.05. For `Cc1cc(C(=O)Nc2nnc([C@H]3CC(=O)N(c4ccccc4)C3)o2)no1`, the “% Inhibition” value was -4% and the Z score was 0.57. In the case of `CC(C)(C)OC(=O)C1(NC(=O)c2cnccn2)CCCC1`, the “% Inhibition” value is reported as -17% and the Z score is reported as 2.58. In the case of `COc1ccc(Cl)cc1NC(=O)[C@H]1C[C@@H]2CCCN2[C@]12C(=O)Nc1c(C)cc(C)cc12`, the “% Inhibition” value is reported as 0% and the Z score is reported as 0.01. For `C[C@@H](C(=O)NCC1(c2cccs2)CCCCC1)c1cncnc1`, the “% Inhibition” value was -10% and the Z score was 1.43. With `Cc1onc(C(=O)N2CC(F)(F)C[C@H]2CN2CCCCC2)c1CN1CCCCC1` the “% Inhibition” value was -8% and the Z score was 1.42. `COC(=O)C1C(c2ccccc2)N(c2ccccc2)OC1(C)O` (centres undefined) was tested, and the “% Inhibition” value was -16% and the Z score was 2.08. In the case of `COC(=O)C1=C(C(=O)OC)SC(=C2C(=S)C(C)(C)N(C(=O)c3ccc4c(c3)OCO4)c3ccc(OC)cc32)S1`, the “% Inhibition” value is reported as 3% and the Z score is reported as -0.61. For `CC(=O)N1CCn2c(nnc2[C@@H]2CCCN2Cc2c[nH]nc2-c2cccs2)C1`, the “% Inhibition” value was -11% and the Z score was 1.6. With `Cc1nccn1-c1cncc(N(C)C[C@@H]2CCCN(C)[C@H]2c2ccnn2C)n1` the “% Inhibition” value was 4% and the Z score was -0.76. For `CCc1nn2c(c1-c1ccc(OC)c(S(=O)(=O)NCCc3cccs3)c1)NC(=O)CCC2=O`, the “% Inhibition” value was -3% and the Z score was 0.32. `O=C(Cc1cnn(-c2ccccc2)n1)N1CCOC[C@@H]1CCO` was tested, and the “% Inhibition” value was 3% and the Z score was -0.55. With `COCCC[C@H]1CCCCN1C(=O)c1ccc2nonc2c1` the “% Inhibition” value was -2% and the Z score was 0.28. With `CCc1cccc(C)c1NC(=O)C1CCN(S(=O)(=O)c2cc3c(cc2C)NC(=O)[C@H](C)O3)CC1` the “% Inhibition” value was -1% and the Z score was 0.15. With `Cc1ccn(CC(=O)N2CC3CC2C3NC(=O)Cn2cc(C)cn2)c(=O)c1` (centres undefined) the “% Inhibition” value was -7% and the Z score was 1.39. With `CN(C)c1ncc(CN2CCCN(CC(=O)N3CCCC3)CC2)cn1` the “% Inhibition” value was -5% and the Z score was 0.81. In the case of `CCCOc1ccc([C@H]2C(=O)N(C3CCC(C)CC3)CC(=O)N2C2CCCC2)cc1OC` (some centres undefined), the “% Inhibition” value is reported as -20% and the Z score is reported as 2.23. `C[C@@H](c1nc(CC(N)=O)nn1CCc1ccccc1)N1CCOCC1` was tested, and the “% Inhibition” value was -20% and the Z score was 2.05. For `O=S(=O)(c1ccc2ccccc2c1)N(Cc1ccccc1)c1ccccc1`, the “% Inhibition” value was 0% and the Z score was 0.04. In the case of `CN(C)[C@@H]1C[C@@H](CO)N(CC(c2ccccc2)c2ccccc2)C1`, the “% Inhibition” value is reported as 9% and the Z score is reported as -1.24. With `CS(=O)(=O)NCc1ccccc1N` the “% Inhibition” value was -18% and the Z score was 1.69. `O=C(Nc1ccc(C(=O)N2CCCCC2)cc1)c1ccc2c(c1)OCO2` was tested, and the “% Inhibition” value was -13% and the Z score was 2.53. For `CN1CC2(CCN(C(=O)C3CCCCCC3)CC2)C[C@@H](c2ccccc2)C1=O`, the “% Inhibition” value was -7% and the Z score was 1.38. `CCN1CCO[C@H](C(=O)Nc2ccc(N3CCCC3)c(C)c2)C1` was tested, and the “% Inhibition” value was 1% and the Z score was -0.07. In the case of `CCOC(=O)C(Cc1c(F)cccc1F)(NC(C)=O)C(=O)OCC`, the “% Inhibition” value is reported as -4% and the Z score is reported as 0.58. `COc1cccc(-c2nnc3c4ccccc4nc(N4CCN(C(=O)C5CCC5)[C@@H](C)C4)n23)c1` was tested, and the “% Inhibition” value was -1% and the Z score was 0.22. With `CN1CCC2(CC1)CN(CCOc1ccccc1)C(=O)O2` the “% Inhibition” value was -12% and the Z score was 1.57. For `CC(C)n1cc(C(=O)N2C[C@@H]3CC[C@H]2CN(C2Cc4ccccc4C2)C3)cn1`, the “% Inhibition” value was -11% and the Z score was 1.69. In the case of `CC1CC(c2ccsc2)CN1C(=O)c1nccnc1C(N)=O` (centres undefined), the “% Inhibition” value is reported as -11% and the Z score is reported as 1.38. `COc1ccc(C[C@H]2CCOC3(CCN(C(=O)c4ccc(OC)cc4OC)CC3)C2)cc1` was tested, and the “% Inhibition” value was -7% and the Z score was 1.47. In the case of `N#Cc1ccc(C(=O)N2CCc3c(CN4CCCC4)cccc32)nc1`, the “% Inhibition” value is reported as -7% and the Z score is reported as 1.04. `CCc1onc(C)c1NC(=O)NCC(C)(C)C(C)C` was tested, and the “% Inhibition” value was 5% and the Z score was -0.91. `O=S(=O)(N1CCCOCC1)N1CCC[C@H](n2ccnn2)CC1` was tested, and the “% Inhibition” value was -3% and the Z score was 0.5. For `CC(C)[C@@H](C)CC(=O)Nc1ncccc1O`, the “% Inhibition” value was -1% and the Z score was 0.09.
